Hit rate of the full screen: of about 46,000 compounds, about 60 (0.1%) were called active. Roughly 3% stayed inconclusive and do not appear here. Calls follow the shape of the dose curve; as a rule, active = well fitted inhibition curve with a large enough effect; inconclusive = small, poorly fitted or top-dose-only effect; inactive = no such curve, though single readings can be large or run the other way. This is one part of the list.
Assay: Primary qHTS assay for Inhibitors of ovarian cancer metastasis using an organotypic tumor microenvironment (TME) model. Also: nearly all actives have a fitted effect of over 65% in size.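 As to activity change, negative = inhibition: plate controls were DMSO wells for no effect and tomatine positive control wells for full effect.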
Conditions: SKOV3ip1-GFP adhesion/invasion on 3D omental model, fluorescence; series mostly up to 45.8 µM; activity change, negative = inhibition: at the top concentration
Procedure, shortened: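 Adhesion/invasion was scored as fixed GFP-labeled SKOV3ip1 cell counts (488/509 nm), normalized to DMSO and tomatine controls. Cancer cells in serum-free medium, with four compound doses (0.36-46 umol/L), sat 2 hr at RT then 16 hr at 37 C on a 48 hr fibroblast/mesothelial/ECM culture.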

Structure (SMILES) | outcome | activity change, negative = inhibition
CC1CCCCN1C(=O)CN1CCSc2ccccc21 (stereo unspecified) | inactive | 
COc1cccc(-n2c(SCC(N)=O)nc3c(oc4ccccc43)c2=O)c1 |  | inactive: -12.3%
CCc1ccccc1NC(=O)CCCn1c(=O)c2cccn2c2ccccc21 | inactive | 
CCc1cccc(-n2c(=O)c3cccnc3n2CC(=O)Nc2ccc(OC)c(Cl)c2)c1 | inactive | 
COc1ccc(C(=O)Oc2ccc(C(c3c(C)[nH][nH]c3=O)c3c(C)[nH][nH]c3=O)cc2)cc1 |  | inactive: 7.73%
COc1ccc(NC(=O)C2Cc3ccccc3CN2S(=O)(=O)c2ccccc2)cc1OC (stereo unspecified) |  | inactive: -2.79%
Cc1cc(S(=O)(=O)Nc2ccc3oc4c(c3c2)CCCC4)ccc1Cl |  | inactive: -9.7%
O=C1CN(C(=O)Cc2ccccc2)C(c2ccc(F)cc2)c2cc(Br)ccc2N1 (stereo unspecified) |  | inactive: 0.872%
Cc1noc(-c2ccc(-c3noc(-c4ccc([N+](=O)[O-])c(C)c4)n3)cc2)n1 |  | inactive: -4.85%
COc1ccc(NS(=O)(=O)c2ccc3c(c2)[C@H]2C=CC[C@H]2[C@@H](c2ccc(C(=O)O)cc2)N3)cc1 |  | inactive: -5.06%
CCOc1ccc(NC(=O)[C@@H](c2ccccc2)N2Cc3ccccc3C2=O)cc1 | inactive | 
CC(C)c1ccc(N2C(=O)N(Cc3cccc([N+](=O)[O-])c3)c3ccccc3S2(=O)=O)cc1 | inactive | 
CC1Cc2cc(S(=O)(=O)NCc3ccc(Cl)cc3)ccc2N1C(=O)C1CCC1 (stereo unspecified) | inactive | 
CCCc1nn2c(=O)cc(COC(=O)c3ccc(NC(=O)COc4ccccc4F)cc3)nc2s1 |  | inactive: -7.32%
Cc1ccc(S(=O)(=O)N2CCc3cc(C(=O)Nc4ccc(Cl)cc4C)ccc32)cc1 |  | inactive: 11.9%
CCOc1ccc(CCNCc2c(C(=O)O)c(C)n(Cc3ccccc3F)c2C)cc1 |  | inactive: -1.35%
O=S(=O)(NCCc1csc2nc(-c3ccccc3)nn12)c1ccc(Oc2ccccc2)cc1 |  | inactive: -10.3%
Cc1cccn2c(=O)c(C(=O)N3CCN(c4ccc(Cl)cc4)CC3)cnc12 |  | inactive: -4.03%
CCN(CC)c1ccc(NC(=O)CCc2c(C)nc3ncnn3c2C)c(C)c1 | inactive | 
COc1cc(C2C(C(=O)Nc3ccccc3C)=C(C)Nc3nc(SCc4cc(C)ccc4C)nn32)ccc1O (stereo unspecified) |  | inactive: -12.8%
COc1ccc(Cl)cc1NC(=O)Cn1nnc2sc(-c3ccccc3)cc2c1=O | inactive | 
Cc1ccc(-n2nnnc2CNC(=O)C2CC(=O)N(c3ccccc3)C2)cc1C (stereo unspecified) |  | inactive: 10.3%
Cc1ccc(Cl)cc1N1CCN(C(=O)c2noc3c2CCCC3)CC1 |  | inactive: 0.214%
CCOC(=O)c1cc2c(=O)n3ccccc3nc2n(Cc2ccco2)c1=NC(=O)c1cccc(Br)c1 |  | inactive: -14%
CCc1ccc(CN(Cc2ccco2)C(=O)c2cc(-c3ccc(C)c(F)c3)on2)cc1 |  | inactive: 6.88%
CCOc1ccc(NC(=O)Cn2cc(C(=O)c3ccc(C)cc3)c(=O)c3cc4c(cc32)OCO4)cc1 |  | inactive: -4.31%
